Source: PubChem BioAssay AID504845 (National Center for Advancing Translational Sciences (NCATS), 2011)
Hit rate of the full screen: of about 390,000 compounds, about 150 (0.038%) were called active. The inconclusive results got no clear call from the source; some entries with a clear call stand among them for comparison. The call rests on the fitted dose curve; in most records, active means well fitted inhibition curve with a large enough effect; inconclusive means small, poorly fitted or top-dose-only effect; inactive means no such curve, though single readings can be large or run the other way. A potency beside an inconclusive call is a rough fit, not a confirmed value.

Target: Regulator of G-protein signaling 4 (Homo sapiens) (UniProt P49798)
Chain of UniProt P49798 (P49798 whole entry, looked up): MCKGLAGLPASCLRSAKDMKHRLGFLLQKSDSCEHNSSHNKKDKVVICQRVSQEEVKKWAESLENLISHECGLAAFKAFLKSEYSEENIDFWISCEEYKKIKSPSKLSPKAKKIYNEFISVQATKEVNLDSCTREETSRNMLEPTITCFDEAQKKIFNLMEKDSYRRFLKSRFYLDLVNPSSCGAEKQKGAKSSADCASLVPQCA
Test: Inhibitors of Regulator of G Protein Signaling (RGS) 4: qHTS; further: nearly all actives have a fitted effect of over 75% in size
Settings: Transcreener GDP fluorescence polarization, RGS4-accelerated GTP hydrolysis; series mostly up to 114 µM
How it was run: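 MLSMR compounds (23 nl, pin-transferred) preincubated 10 min at room temperature with a 500nM (2x) first reagent, then RGS4 at 900nM (2x) plus Transcreener GDP mix added; fluorescence polarization (620/688 nm) read before and after 90 min at 30 °C.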
On the % scale 0 is the no-effect control and ±100 the full control effect; potency means the concentration at half of the fitted maximal effect; tags describe the fitted curve by direction and shape.

Row | Structure (SMILES) | Potency | activity change, negative = inhibition
1 | CCc1ccc(C(=O)CSc2ncn[nH]2)cc1 | inconclusive: 35.5 µM [inhibitor, full curve, poor fit] | –
2 | c1ccc(Cc2nnc3sc(-c4ccco4)nn23)cc1 | inactive | –
3 | COc1ccc(C(=S)N2CCN(C)CC2)cc1 | inconclusive: 50.1 µM [inhibitor, partial curve, poor fit] | –
4 | CCc1cc(=O)oc2cc(C)cc(OCC(=O)N[C@@H](CSCc3ccccc3)C(=O)O)c12 | inactive | –
5 | CC(C)CC1NC(=S)N(C2CCCCC2)C1=O (centres undefined) | – | inactive: -43% [at 11.4 µM]
6 | O=C(CCN1C(=O)/C(=C\c2ccccc2)SC1=S)NCCCN1CCOCC1 | inactive | –
7 | O=c1c2ccccc2nc2n1CC/C2=C/N1CCN(c2cccc(C(F)(F)F)c2)CC1 | inconclusive: 25.1 µM [inhibitor, full curve, poor fit] | –
8 | COc1ccc(N(CC(=O)Nc2ccccc2C)S(=O)(=O)c2ccccc2[N+](=O)[O-])c(OC)c1 | inconclusive: 50.1 µM [inhibitor, partial curve, poor fit] | –
9 | Cc1csc(NC(=O)CSc2nc3[nH]c(=O)cc(O)c3s2)n1 | inactive | –
10 | CCCCN(C)S(=O)(=O)c1cc(-c2nnc3c4ccccc4c(C)nn23)ccc1C | inactive | –
11 | CCc1cc(N2CCOCC2)cc2c1[nH]c1ccccc12 | inconclusive: 56.2 µM [inhibitor, partial curve, poor fit] | –
12 | Cc1ccc(-c2n[nH]c(=S)n2/N=C/C=C/c2ccccc2[N+](=O)[O-])cc1 | inconclusive: 31.6 µM [inhibitor, partial curve, poor fit] | –
13 | CCOC(=O)c1sc(N2N=C(C)/C(=C\c3ccc(OCC(=O)OC)cc3)C2=O)nc1C | inconclusive: 31.6 µM [inhibitor, full curve, poor fit] | –
14 | Cc1ccc(C(=O)NS(=O)(=O)c2ccccc2)cc1 | inconclusive: 89.1 µM [inhibitor, partial curve, poor fit] | –
15 | COc1cccc(C2=NN(C(=O)c3ccco3)C(c3ccco3)C2)c1 (centres undefined) | inconclusive: 44.7 µM [inhibitor, partial curve, poor fit] | –
16 | COC(=O)c1[nH]c2cccc(OC)c2c1NC(=O)C(C)N1CCC(C)CC1 (centres undefined) | inactive | –
17 | Brc1cccc(-c2cnc3n2CCCCC3)c1 | inconclusive: 89.1 µM [inhibitor, single point] | –
18 | O=Nc1c(-c2c(O)[nH]c3cc(Br)ccc23)[nH]c2ccccc12 | inconclusive: 21.2 µM [inhibitor, partial curve, poor fit] | –
19 | O=C(CCN1CCCCCC1)Nc1cccc(F)c1 | inconclusive: 70.8 µM [inhibitor, single point] | –
20 | O/N=C/c1cc(Br)ccc1OCc1ccc(F)cc1 | inconclusive: 89.1 µM [inhibitor, single point] | –
21 | Cc1ccc(C(NC(=O)N2CCN(C)CC2)C(Cl)Cl)cc1F (centres undefined) | inconclusive: 89.1 µM [inhibitor, single point] | –
22 | CSc1nc2sc3c(c2c(=O)n1-c1ccccc1C)CCCC3 | inactive | –
23 | Cc1ccc(/C=N/n2c(C3CCCCC3)n[nH]c2=S)cc1 | inconclusive: 17.8 µM [inhibitor, full curve, poor fit] | –

Row | Structure (SMILES) | Potency | activity change, negative = inhibition
24 | COc1ccc(C(C)=O)cc1COC(=O)c1cc(=O)c2ccccc2o1 | inactive | –
25 | CCc1ccccc1NC(=O)Nc1cnccn1 | inactive | –
26 | CCCCC(=O)NNC(=S)NC(=O)c1cccc([N+](=O)[O-])c1 | inconclusive: 89.1 µM [inhibitor, partial curve, poor fit] | –
27 | Cc1cnccc1CN(C)C(=O)C1CCC(=O)N(Cc2ccccc2F)C1 (centres undefined) | inconclusive: 79.4 µM [inhibitor, single point] | –
28 | COc1ccc(C)cc1S(=O)(=O)N1CCOCC1 | inconclusive: 56.2 µM [inhibitor, partial curve, poor fit] | –
29 | CC(=O)C1=C(C)NC(SCC(=O)c2cc(Cl)ccc2Cl)=C(C#N)C1c1ccco1 (centres undefined) | inconclusive: 79.4 µM [inhibitor, partial curve, poor fit] | –
30 | O=C(Oc1ccccc1C(=S)N1CCCCC1)c1cc([N+](=O)[O-])cc([N+](=O)[O-])c1 | inconclusive: 39.8 µM [inhibitor, partial curve, poor fit] | –
31 | CNC(=O)c1nnsc1S(=O)c1ccc(Cl)cc1 (centres undefined) | inconclusive: 28.2 µM [inhibitor, full curve, poor fit] | –
32 | CN1CCC(=NNC(=O)C(=O)Nc2cccc(Br)c2)CC1 | inconclusive: 50.1 µM [inhibitor, partial curve, poor fit] | –
33 | Cn1cccc1C(=O)NC(=O)COC(=O)c1cc(S(=O)(=O)N2CCCCC2)ccc1Cl | inconclusive: 39.8 µM [inhibitor, partial curve, poor fit] | –
34 | Nc1c(C(=O)NC2CC2)sc2nc3c(c(-c4ccco4)c12)CC/C3=C/c1ccco1 | inconclusive: 100 µM [inhibitor, partial curve, poor fit] | –
35 | CCOC(=O)CC(NCc1ccc(OC)c(OCC)c1)c1ccc(C)cc1 (centres undefined) | inconclusive: 79.4 µM [inhibitor, partial curve, poor fit] | –
36 | COc1ccc(COC(=O)C2=C(C)NC(=O)NC2c2ccc(F)cc2)cc1 (centres undefined) | inactive | –
37 | CC1CCN(CCc2nc3cc(NC(=O)NC4CCCCC4)ccc3n2C)CC1 | inactive | –
38 | CCOC(=O)C1(CCCc2ccccc2)CCN(Cc2cnn(C)c2)CC1 | inactive | –
39 | CCc1ccc(-n2nc(CO)c(C(=O)NCc3ccccn3)n2)cc1 | inactive | –
40 | CC(C)C[C@@H](CNCC(=O)[C@H](CC(C)C)NC(=O)c1[nH]cnc1C(=O)N[C@@H](C)CN)NC(=O)c1nc[nH]c1C(=O)N[C@@H](C)C(=O)O | inactive | –
41 | O=C(CN(c1cccc(Br)c1)S(=O)(=O)c1ccccc1)N1CCc2ccccc2C1 | inactive | –
42 | Cc1ccc(NC(=O)CN(C)C(=O)c2cc(-c3ccco3)nc3ccccc23)cc1 | inconclusive: 39.8 µM [inhibitor, partial curve, poor fit] | –
43 | N#Cc1ccc(CN2CCN(CC(=O)NCCc3ccc(Cl)cc3Cl)CC2)cc1 | inactive | –
44 | Cc1[nH]nc2c1C(c1cc(Br)cs1)C(C#N)=C(N)O2 (centres undefined) | inconclusive: 100 µM [inhibitor, partial curve, poor fit] | –
45 | CCOc1ccc(OCCn2c(=S)[nH]c3c(N)ncnc32)cc1 | inconclusive: 89.1 µM [inhibitor, partial curve, poor fit] | –
46 | COCCCNC(=O)c1ccccc1NS(C)(=O)=O | inactive | –

Row | Structure (SMILES) | Potency | activity change, negative = inhibition
47 | CCC(CC)c1nn2c(=O)cc(COc3ccc(NC(=O)c4ccc(Cl)cc4)cc3)nc2s1 | inactive | –
48 | COc1ccc2cc(S(=O)(=O)N3CCCCCC3)ccc2c1 | inconclusive: 70.8 µM [inhibitor, single point] | –
49 | COc1cccc(C2(O)CC(C(F)(F)F)=NN2C(=O)c2ccccn2)c1 (centres undefined) | inactive | –
50 | Cc1ccc(-c2cc(C(=O)N3CCN(c4ccc(F)cc4)CC3)c3ccccc3n2)o1 | inactive | –
51 | O=C(Nc1cccc(-c2csc(Nc3ccc(Cl)cc3)n2)c1)c1ccccc1 | inconclusive: 44.7 µM [inhibitor, partial curve, poor fit] | –
52 | O=c1ccn([C@@H]2O[C@H](COP(=O)(O)O)[C@@H](O)[C@H]2O)c(=O)[nH]1 | active: 37.7 µM | –
53 | CCOC(=O)/C=C(/C)N1N=C(c2ccc(OC)cc2)CC1c1cccc([N+](=O)[O-])c1 (centres undefined) | inconclusive: 56.2 µM [inhibitor, partial curve, poor fit] | –
54 | CC1C(=O)NN=C1C(=O)N/N=C/c1ccco1 (centres undefined) | inconclusive: 79.4 µM [inhibitor, partial curve, poor fit] | –
55 | O=C(c1ccc2c(c1)OCO2)C1CCCN(Cc2cccc(C(F)(F)F)c2)C1 (centres undefined) | inactive | –
56 | COC(=O)c1c(NC(=O)CCCOc2ccc(C)cc2)sc2c1C(C(=O)OC)CC2 (centres undefined) | inconclusive: 100 µM [inhibitor, partial curve, poor fit] | –
57 | Clc1cc(Br)ccc1OCCOCCN1CCOCC1 | inactive | –
58 | CCc1ccc(CN2CCN(C(=O)c3cccc(OC)c3OC)CC2)cc1 | inactive | –
59 | Cc1ccc2nc(/C(C#N)=C/c3cn[nH]c3-c3ccc(F)cc3)[nH]c2c1 | inactive | –
60 | Cc1ccc(OC(C)C(=O)N2CCN(c3ccccn3)CC2)cc1 (centres undefined) | inconclusive: 89.1 µM [inhibitor, partial curve, poor fit] | –
61 | CCOC(=O)C(=O)C1C(=O)Nc2ccccc21 (centres undefined) | inconclusive: 89.1 µM [inhibitor, single point] | –
62 | COC(=O)c1ccc(-n2nc(C(F)(F)F)c3c2-c2ccoc2CC3)cc1 | inconclusive: 70.8 µM [inhibitor, partial curve, poor fit] | –
63 | O=C1NC(=S)S/C1=C\c1cc(Cl)cc(Cl)c1O | inconclusive: 56.2 µM [inhibitor, partial curve, poor fit] | –
64 | CCC(C)(C)c1nnc(NC(=O)C2CCN(C(=O)c3ccco3)CC2)s1 | inconclusive: 44.7 µM [inhibitor, partial curve, poor fit] | –
65 | CN1C(=O)c2ccccc2C(C(=O)O)C1c1cn(C)c2ccccc12 (centres undefined) | inconclusive: 70.8 µM [inhibitor, partial curve, poor fit] | –
66 | CC(C)c1ccccc1OCC(=O)NC1CCCc2ccccc21 (centres undefined) | inactive | –
67 | c1ccc2c(N3CCCCCC3)nc(-c3ccncc3)nc2c1 | inconclusive: 70.8 µM [inhibitor, single point] | –
68 | CC(C)/C=C1\CC/C(=C\c2ccc(N(C)C)cc2)C1=O | inactive | –
69 | COC(=O)Cn1cc(C(=O)OC)c2ccccc21 | inconclusive: 79.4 µM [inhibitor, single point] | –
